No constants are given. Whether binding was seen depends on the method and setting. Binding seen in cells or lysates may run through a third protein. Some binding calls cover weakened binding; strength is not graded here. For part of these data: Tags and fused reporters may be left off the sequences shown.
How the values were obtained:
[1] = biological target: T1, necdin, endogenous in U2OS cells (human (endogenous in U2OS)) (UniProt Q99608); assay: co-IP; endogenous proteins in U2OS cell lysate; antibody against necdin or SGT1 or control IgG, protein G agarose, immunoblot
T1 sequence: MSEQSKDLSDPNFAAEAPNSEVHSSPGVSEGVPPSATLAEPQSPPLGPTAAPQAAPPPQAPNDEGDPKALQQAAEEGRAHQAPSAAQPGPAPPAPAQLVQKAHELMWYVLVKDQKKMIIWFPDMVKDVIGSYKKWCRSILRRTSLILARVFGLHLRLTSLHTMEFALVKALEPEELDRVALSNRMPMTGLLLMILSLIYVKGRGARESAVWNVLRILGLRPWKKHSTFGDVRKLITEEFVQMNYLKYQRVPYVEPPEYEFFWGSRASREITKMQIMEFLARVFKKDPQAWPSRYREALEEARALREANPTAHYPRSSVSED

Protein sequences, listed by entry. Tags and fused reporters are not part of them.
UniProt O00327: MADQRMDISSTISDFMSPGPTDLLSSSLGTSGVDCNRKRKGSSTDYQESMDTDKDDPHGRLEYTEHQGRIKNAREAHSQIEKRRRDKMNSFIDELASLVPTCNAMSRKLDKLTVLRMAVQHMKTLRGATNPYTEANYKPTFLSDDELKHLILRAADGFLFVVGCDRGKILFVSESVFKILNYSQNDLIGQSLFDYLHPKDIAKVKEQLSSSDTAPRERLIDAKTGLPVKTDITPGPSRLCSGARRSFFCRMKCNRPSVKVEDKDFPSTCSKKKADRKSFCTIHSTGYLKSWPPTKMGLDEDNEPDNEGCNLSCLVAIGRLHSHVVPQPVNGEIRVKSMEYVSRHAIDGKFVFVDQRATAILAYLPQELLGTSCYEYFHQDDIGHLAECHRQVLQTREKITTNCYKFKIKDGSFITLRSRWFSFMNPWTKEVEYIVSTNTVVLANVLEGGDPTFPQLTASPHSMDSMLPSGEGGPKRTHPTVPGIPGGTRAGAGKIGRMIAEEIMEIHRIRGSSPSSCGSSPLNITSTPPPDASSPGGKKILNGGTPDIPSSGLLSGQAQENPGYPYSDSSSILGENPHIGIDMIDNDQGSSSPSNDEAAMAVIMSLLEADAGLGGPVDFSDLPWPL
UniProt Q9WTL8: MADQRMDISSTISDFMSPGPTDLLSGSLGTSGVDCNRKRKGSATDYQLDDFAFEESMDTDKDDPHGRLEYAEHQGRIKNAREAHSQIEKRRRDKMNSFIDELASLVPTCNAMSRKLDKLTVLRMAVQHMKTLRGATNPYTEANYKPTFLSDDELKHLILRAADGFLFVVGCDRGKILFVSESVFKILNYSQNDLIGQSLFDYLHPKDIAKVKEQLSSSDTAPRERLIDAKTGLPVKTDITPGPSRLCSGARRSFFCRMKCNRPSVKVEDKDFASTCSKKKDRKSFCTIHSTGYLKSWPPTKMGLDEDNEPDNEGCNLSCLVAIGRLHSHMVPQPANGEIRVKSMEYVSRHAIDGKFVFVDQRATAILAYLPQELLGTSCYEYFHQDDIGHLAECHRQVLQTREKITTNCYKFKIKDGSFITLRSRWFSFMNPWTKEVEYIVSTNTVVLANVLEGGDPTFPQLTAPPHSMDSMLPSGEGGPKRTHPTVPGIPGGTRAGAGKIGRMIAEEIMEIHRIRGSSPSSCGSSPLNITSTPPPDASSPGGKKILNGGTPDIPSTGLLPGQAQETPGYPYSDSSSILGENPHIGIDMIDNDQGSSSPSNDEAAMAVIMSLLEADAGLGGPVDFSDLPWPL

[2] = biological target: T2, FLAG-tagged necdin fragment, amino acids 116-170 (UniProt P25233); assay: co-IP; two tagged proteins co-expressed in HEK293T cells; lysis buffer 150 mM NaCl, 1% NP-40, 2 mM EDTA, 50 mM Tris pH 8.0; antibody to the tag overnight at 4 C, protein G agarose, immunoblot
T2 sequence: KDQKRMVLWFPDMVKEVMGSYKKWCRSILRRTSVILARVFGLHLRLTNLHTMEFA

[3] = biological target: T3, FLAG-tagged necdin, full length (UniProt P25233); assay: as above
T3 sequence: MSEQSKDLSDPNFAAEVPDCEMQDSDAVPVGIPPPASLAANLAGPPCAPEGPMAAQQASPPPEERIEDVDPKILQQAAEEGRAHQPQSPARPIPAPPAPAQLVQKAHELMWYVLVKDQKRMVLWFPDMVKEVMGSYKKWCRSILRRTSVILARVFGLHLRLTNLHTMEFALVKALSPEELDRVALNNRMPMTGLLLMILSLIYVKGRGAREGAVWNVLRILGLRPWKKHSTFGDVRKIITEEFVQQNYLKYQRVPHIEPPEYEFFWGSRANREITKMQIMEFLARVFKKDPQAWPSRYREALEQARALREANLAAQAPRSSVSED

[4] = biological target: T4, FLAG-tagged necdin fragment, amino acids 190-325 (UniProt P25233); assay: as above
T4 sequence: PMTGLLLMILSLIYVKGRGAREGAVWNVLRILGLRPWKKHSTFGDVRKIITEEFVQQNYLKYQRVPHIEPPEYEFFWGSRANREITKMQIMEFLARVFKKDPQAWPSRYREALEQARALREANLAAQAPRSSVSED

[5] = biological target: T5, FLAG-tagged necdin fragment, amino acids 1-170 (UniProt P25233); assay: as above
T5 sequence: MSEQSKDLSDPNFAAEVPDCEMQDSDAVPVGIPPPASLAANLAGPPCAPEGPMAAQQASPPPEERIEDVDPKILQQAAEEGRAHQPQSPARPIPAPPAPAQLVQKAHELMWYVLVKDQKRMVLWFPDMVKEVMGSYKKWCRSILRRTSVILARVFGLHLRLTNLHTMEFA

[6] = biological target: T6, FLAG-tagged necdin fragment, amino acids 1-115 (UniProt P25233); assay: as above
T6 sequence: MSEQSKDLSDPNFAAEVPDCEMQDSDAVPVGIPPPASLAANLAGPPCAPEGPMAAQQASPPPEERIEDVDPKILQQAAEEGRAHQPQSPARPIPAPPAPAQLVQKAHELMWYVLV

Row | Substance | binding [1] | binding [2] | binding [3] | binding [4] | binding [5] | binding [6]
1 | BMAL1, endogenous in U2OS cells (from UniProt O00327 1-626) | binds |  |  |  |  | 
2 | HA-tagged BMAL1 (from UniProt Q9WTL8 1-632) |  | binds | binds | no binding | binds | no binding

— PMC7430654
